Measured values from a compilation of properties of binary mixtures (doi:10.1021/ie302343v).
Some of these densities may be calculated back from excess volumes.

Experiment: xn = mol fraction of the nth substance listed
Conditions: 101 kPa

CCCCCC(=O)[O-].C[NH2+]CCO + CCOC(C)=O
Conditions | mass density [kg/m3]
288.15 K, x2 = 0 | 1001.1
288.15 K, x2 = 0.3111 | 985.8
288.15 K, x2 = 0.5971 | 963.2
288.15 K, x2 = 0.9017 | 924.5
288.15 K, x2 = 0.9499 | 916.5
288.16 K, x2 = 0.0719 | 997.4
288.16 K, x2 = 0.1039 | 995.3
288.16 K, x2 = 0.4946 | 973.1
288.16 K, x2 = 0.7005 | 952.4
288.16 K, x2 = 0.8031 | 938.7
293.14 K, x2 = 0.8031 | 933.5
293.15 K, x2 = 0 | 997.6
293.15 K, x2 = 0.0719 | 993.8
293.15 K, x2 = 0.3986 | 976
293.15 K, x2 = 0.4946 | 968.8
293.15 K, x2 = 0.7005 | 947.6
293.15 K, x2 = 0.9017 | 918.8
298.14 K, x2 = 0.4946 | 964.6
298.14 K, x2 = 0.8031 | 928.3
298.15 K, x2 = 0 | 994.2
298.15 K, x2 = 0.1039 | 988.1
298.15 K, x2 = 0.1973 | 985.1
298.15 K, x2 = 0.3111 | 977.3
298.15 K, x2 = 0.5971 | 954.5
298.15 K, x2 = 0.7005 | 942.8
298.15 K, x2 = 0.9017 | 913.1
298.16 K, x2 = 0.9499 | 904.7
303.14 K, x2 = 0.0719 | 986.5
303.14 K, x2 = 0.1039 | 984.5
303.14 K, x2 = 0.3111 | 973.3
303.14 K, x2 = 0.4946 | 960.3
303.14 K, x2 = 0.7005 | 937.9
303.15 K, x2 = 0 | 990.7
303.15 K, x2 = 0.1973 | 981.2
303.15 K, x2 = 0.9017 | 907.4
303.15 K, x2 = 0.9499 | 898.8
308.14 K, x2 = 0 | 987.1
308.14 K, x2 = 0.1039 | 981
308.14 K, x2 = 0.3111 | 969.3
308.14 K, x2 = 0.4946 | 955.9
308.14 K, x2 = 0.5971 | 945.7
308.14 K, x2 = 0.7005 | 933
308.15 K, x2 = 0.8031 | 917.6
308.15 K, x2 = 0.9017 | 901.6
313.14 K, x2 = 0 | 983.6
313.14 K, x2 = 0.0719 | 979.4
313.14 K, x2 = 0.1039 | 977.4
313.14 K, x2 = 0.1973 | 972.7
313.14 K, x2 = 0.3111 | 965.3
313.14 K, x2 = 0.3986 | 959.6
313.14 K, x2 = 0.4946 | 951.6
313.14 K, x2 = 0.7005 | 928
313.15 K, x2 = 0.5971 | 941.2
313.15 K, x2 = 0.8031 | 912.3
313.15 K, x2 = 0.9017 | 895.8
313.16 K, x2 = 0.9499 | 886.7
318.14 K, x2 = 0.1039 | 973.9
318.14 K, x2 = 0.1973 | 968.5
318.14 K, x2 = 0.4946 | 947.2
318.14 K, x2 = 0.5971 | 936.8
318.15 K, x2 = 0 | 980.2
318.15 K, x2 = 0.0719 | 975.8
318.15 K, x2 = 0.7005 | 923
323.14 K, x2 = 0.1039 | 970.2
323.14 K, x2 = 0.5971 | 932.2
323.15 K, x2 = 0 | 976.7
323.15 K, x2 = 0.0719 | 972.2
323.15 K, x2 = 0.3111 | 957.3
323.15 K, x2 = 0.4946 | 942.8
323.15 K, x2 = 0.7005 | 918
323.15 K, x2 = 0.8031 | 901.5
323.15 K, x2 = 0.9017 | 884
323.15 K, x2 = 0.9499 | 874.5
328.14 K, x2 = 0.0719 | 968.5
328.14 K, x2 = 0.1973 | 960.7
328.14 K, x2 = 0.4946 | 938.4
328.15 K, x2 = 0 | 973.1
328.15 K, x2 = 0.3111 | 953.3
328.15 K, x2 = 0.3986 | 947.1
328.15 K, x2 = 0.8031 | 896
328.15 K, x2 = 0.9017 | 878
328.16 K, x2 = 0.9499 | 868.3

CCCCCC(=O)[O-].C[NH2+]CCO + COC(C)=O
Conditions | mass density [kg/m3]
288.14 K, x2 = 0.3045 | 993.8
288.15 K, x2 = 0.0512 | 999.4
288.15 K, x2 = 0.1336 | 998.1
288.15 K, x2 = 0.2149 | 996.3
288.15 K, x2 = 0.403 | 990.2
288.15 K, x2 = 0.5063 | 985.6
288.15 K, x2 = 0.5982 | 980.7
288.15 K, x2 = 0.7999 | 964.1
288.15 K, x2 = 0.9011 | 953.1
288.15 K, x2 = 0.9512 | 946.8
293.14 K, x2 = 0.1336 | 994.4
293.14 K, x2 = 0.9011 | 947.2
293.14 K, x2 = 0.9512 | 940.6
293.15 K, x2 = 0.0512 | 995.9
293.15 K, x2 = 0.2149 | 992.6
293.15 K, x2 = 0.3045 | 990
293.15 K, x2 = 0.403 | 986.2
293.15 K, x2 = 0.5063 | 981.3
293.15 K, x2 = 0.5982 | 976.2
293.15 K, x2 = 0.6976 | 968.7
293.15 K, x2 = 0.7999 | 958.7
298.14 K, x2 = 0.1336 | 990.7
298.14 K, x2 = 0.3045 | 986.1
298.14 K, x2 = 0.403 | 982.1
298.14 K, x2 = 0.7999 | 953.3
298.15 K, x2 = 0.2149 | 988.9
298.15 K, x2 = 0.5982 | 971.6
298.15 K, x2 = 0.9011 | 941.2
298.15 K, x2 = 0.9512 | 934.4
298.16 K, x2 = 0.0512 | 992.3
303.14 K, x2 = 0.2149 | 985.2
303.14 K, x2 = 0.6976 | 958.9
303.14 K, x2 = 0.7999 | 947.9
303.15 K, x2 = 0 | 990.7
303.15 K, x2 = 0.3045 | 982.3
303.15 K, x2 = 0.403 | 978.1
303.15 K, x2 = 0.5063 | 972.7
303.15 K, x2 = 0.5982 | 967.1
303.15 K, x2 = 0.9011 | 935.2
308.14 K, x2 = 0 | 987.1
308.14 K, x2 = 0.6976 | 953.9
308.14 K, x2 = 0.7999 | 942.4
308.14 K, x2 = 0.9011 | 929.1
308.15 K, x2 = 0.0512 | 985.2
308.15 K, x2 = 0.2149 | 981.4
308.15 K, x2 = 0.5063 | 968.3
308.15 K, x2 = 0.5982 | 962.5
308.16 K, x2 = 0.9512 | 921.6
308.22 K, x2 = 0.403 | 973.8
313.14 K, x2 = 0 | 983.6
313.14 K, x2 = 0.0512 | 981.7
313.14 K, x2 = 0.5982 | 957.8
313.14 K, x2 = 0.6976 | 948.9
313.14 K, x2 = 0.7999 | 936.9
313.15 K, x2 = 0.1336 | 979.8
313.15 K, x2 = 0.2149 | 977.7
313.15 K, x2 = 0.3045 | 974.5
313.15 K, x2 = 0.5063 | 963.9
313.15 K, x2 = 0.9011 | 923
313.15 K, x2 = 0.9512 | 915.2
318.14 K, x2 = 0.7999 | 931.3
318.15 K, x2 = 0 | 980.2
318.15 K, x2 = 0.3045 | 970.5
318.15 K, x2 = 0.5063 | 959.5
318.15 K, x2 = 0.9011 | 916.8
318.15 K, x2 = 0.9512 | 908.7
318.16 K, x2 = 0.0512 | 978.1
318.16 K, x2 = 0.1336 | 976.1
318.16 K, x2 = 0.2149 | 973.9
323.14 K, x2 = 0.5982 | 948.5
323.14 K, x2 = 0.7999 | 925.7
323.14 K, x2 = 0.9011 | 910.6
323.15 K, x2 = 0 | 976.7
323.15 K, x2 = 0.0512 | 974.5
323.15 K, x2 = 0.1336 | 972.3
323.15 K, x2 = 0.2149 | 970.1
323.15 K, x2 = 0.403 | 961.6
323.15 K, x2 = 0.5063 | 955.1
323.15 K, x2 = 0.9512 | 902.2
328.14 K, x2 = 0.1336 | 968.5
328.15 K, x2 = 0 | 973.1
328.15 K, x2 = 0.3045 | 962.6
328.15 K, x2 = 0.5063 | 950.7
328.15 K, x2 = 0.5982 | 943.9
328.15 K, x2 = 0.6976 | 933.8
328.15 K, x2 = 0.7999 | 920.1
328.15 K, x2 = 0.9011 | 904.3
